This passage reports cytotoxicity call and growth inhibition call results from the antibiotic and cytotoxicity screens of Wong et al. (2023).

One assay concerns HSkMC. The experiment in a line: cytotoxicity call (relative viability < 0.9). The note with it: 10 µM.
A further assay relates to S. aureus RN4220. The experiment in a line: growth inhibition call (relative growth <= 0.2). The note with it: 50 µM.

The other results are listed elsewhere or left out.

With `C=C[C@](C)(O)CCC=C(C)C`, the cytotoxicity call in the assay on HSkMC is “inactive”. The growth inhibition call in the assay with S. aureus RN4220 is “inactive”.
As to `COc1ccccc1S(=O)(=O)N1C[C@@H](O)COC[C@@H]2O[C@@H](CC(=O)O)CC[C@H]21`, the cytotoxicity call in the assay with HSkMC was “inactive”. Further, the growth inhibition call in the assay with S. aureus RN4220 was “inactive”.
For `C[C@H]1CN([C@@H](C)CO)C(=O)c2cc(NC(=O)Cn3cnnn3)ccc2O[C@H]1CN(C)S(=O)(=O)c1ccc(Cl)cc1`, the cytotoxicity call in the assay on HSkMC is “inactive”. The growth inhibition call in the assay on S. aureus RN4220 was “inactive”.
Turning to `Cc1ccc(S(=O)(=O)N(C)C[C@H]2Oc3ccc(NS(=O)(=O)c4cn(C)cn4)cc3CC(=O)N([C@@H](C)CO)C[C@H]2C)cc1`, in the assay with HSkMC, the cytotoxicity call is “inactive”. The growth inhibition call in the assay with S. aureus RN4220 was “inactive”.
With `C[C@@H]1CN([C@H](C)CO)C(=O)c2cc(NC(=O)Cn3cnnn3)ccc2O[C@H]1CN(C)Cc1ccc(Cl)c(Cl)c1`, the cytotoxicity call in the assay on HSkMC was “inactive”. In the assay on S. aureus RN4220, the growth inhibition call is “inactive”.
In the case of `C[C@@H]1CCCCO[C@@H](CN(C)Cc2ccc(C(=O)Nc3ccccc3N)cc2)[C@@H](C)CN([C@H](C)CO)C(=O)c2cc(NC(=O)Cc3ccccc3)ccc2O1`, the cytotoxicity call in the assay on HSkMC is “inactive”. The growth inhibition call in the assay with S. aureus RN4220 was “inactive”.
Take `Cc1cnc(CNC(=O)[C@H]2C[C@H]3[C@@H](CCN3S(C)(=O)=O)O2)cn1`: the cytotoxicity call in the assay on HSkMC is “inactive”. For the same compound, the growth inhibition call in the assay with S. aureus RN4220 was “inactive”.
For the compound `OCC1OC(OC2C(O)C(CO)OC2(CO)OC2OC(CO)C(O)C(O)C2O)C(O)C(O)C1O` (stereo not drawn), the cytotoxicity call in the assay with HSkMC was “inactive”. In the assay on S. aureus RN4220, the growth inhibition call is “inactive”.
Turning to `C[C@@H]1CN([C@H](C)CO)C(=O)CCCn2nncc2CO[C@H]1CN(C)S(=O)(=O)c1ccccc1C#N`, the cytotoxicity call in the assay on HSkMC is “inactive”. Moreover, the growth inhibition call in the assay with S. aureus RN4220 was “inactive”.
Regarding `CC(C)c1nc(CN(C)C(=O)N[C@@H](CCN2CCOCC2)C(=O)N[C@H](CC[C@H](Cc2ccccc2)NC(=O)OCc2cncs2)Cc2ccccc2)cs1`, the cytotoxicity call in the assay with HSkMC is “inactive”. Besides, the growth inhibition call with S. aureus RN4220 is “inactive”.
In the case of `COc1ccc(S(=O)(=O)N(C)C[C@@H]2Oc3c(NS(=O)(=O)c4ccccc4)cccc3C(=O)N([C@H](C)CO)C[C@H]2C)cc1`, the cytotoxicity call in the assay on HSkMC was “inactive”. Also, in the assay on S. aureus RN4220, the growth inhibition call was “inactive”.
Regarding `C[C@@H]1CCCCO[C@H](CN(C)Cc2ccc3c(c2)OCO3)[C@@H](C)CN([C@H](C)CO)C(=O)c2cc(NS(=O)(=O)c3ccc(Cl)cc3)ccc2O1`, in the assay with HSkMC, the cytotoxicity call was “inactive”. Besides, the growth inhibition call with S. aureus RN4220 is “inactive”.
Consider `Cc1oc(C(C)(C)C)cc1C(=O)Nc1ccc(C(C)C)cc1`, for which, in the assay with HSkMC, the cytotoxicity call was “inactive”. Moreover, the growth inhibition call in the assay on S. aureus RN4220 is “inactive”.
Regarding `C[C@@H]1CN(CCO[Si](C)(C)C(C)(C)C)C(=O)c2cc(NC(=O)Nc3ccccc3)ccc2O[C@@H](C)CCCCO[C@H]1CN(C)S(=O)(=O)c1ccc(F)cc1`, the cytotoxicity call with HSkMC was “inactive”. In the assay with S. aureus RN4220, the growth inhibition call is “inactive”.
Regarding `Cc1ccc(S(=O)(=O)Nc2ccc3c(c2)C(=O)N([C@@H](C)CO)C[C@@H](C)[C@H](CN(C)C(=O)c2ccccc2)OCCCC[C@H](C)O3)cc1`, the cytotoxicity call in the assay with HSkMC was “inactive”. In the assay with S. aureus RN4220, the growth inhibition call is “inactive”.
Regarding `C[C@@H]1CCCCO[C@H](CN(C)Cc2ccccc2)[C@H](C)CN([C@@H](C)CO)C(=O)c2cc(NC(=O)Nc3ccccc3)ccc2O1`, the cytotoxicity call in the assay on HSkMC is “inactive”. In addition, the growth inhibition call in the assay on S. aureus RN4220 was “inactive”.
`Cc1ccccc1-c1ccc2c(c1)O[C@@H](CN(C)C(=O)Nc1ccc(C(F)(F)F)cc1)[C@@H](C)CN([C@@H](C)CO)S2(=O)=O`: the cytotoxicity call in the assay on HSkMC was “active”. For the same compound, the growth inhibition call in the assay on S. aureus RN4220 is “inactive”.
With `O=C(C[C@H]1CC[C@H]2[C@@H](COC[C@H](O)CN2Cc2ccccc2F)O1)N[C@H]1CCN(Cc2ccccc2)C1`, the cytotoxicity call in the assay on HSkMC was “inactive”. Moreover, the growth inhibition call in the assay with S. aureus RN4220 is “inactive”.
Consider `O=C(C[C@H]1C=C[C@@H](NC(=O)CN2CCOCC2)[C@@H](CO)O1)NCCc1ccccc1`, for which the cytotoxicity call in the assay with HSkMC is “inactive”. Further, the growth inhibition call with S. aureus RN4220 is “inactive”.
As to `CN1CCCC1c1cccnc1.O=C(O)C(O)C(O)C(=O)O.O=C(O)C(O)C(O)C(=O)O` (stereo not drawn), the cytotoxicity call in the assay on HSkMC was “inactive”. In addition, the growth inhibition call in the assay on S. aureus RN4220 is “inactive”.
As for `COc1ccc(CN(C)C[C@H]2OCCCC[C@@H](C)Oc3ccc(NC(=O)Nc4c(C)noc4C)cc3C(=O)N([C@@H](C)CO)C[C@@H]2C)cc1`, the cytotoxicity call with HSkMC was “inactive”. In addition, in the assay with S. aureus RN4220, the growth inhibition call is “inactive”.
In the case of `O=C1CN(S(=O)(=O)Cc2ccccc2)C[C@@H]2[C@H](c3ccc(C#Cc4cccc(F)c4)cc3)[C@@H](CO)N12`, the cytotoxicity call in the assay on HSkMC is “inactive”. In addition, the growth inhibition call with S. aureus RN4220 was “inactive”.
As to `Cc1cc(C(=O)Nc2cccc3c2O[C@H](CN(C)S(=O)(=O)c2cccs2)[C@@H](C)CN([C@H](C)CO)C3=O)n(C)n1`, the cytotoxicity call in the assay on HSkMC was “inactive”. Besides, in the assay on S. aureus RN4220, the growth inhibition call is “inactive”.
As for `COc1ccc(S(=O)(=O)N2C[C@H](O)COC[C@H]3O[C@H](CC(=O)NCc4ccc(Cl)c(Cl)c4)CC[C@@H]32)cc1`, the cytotoxicity call in the assay on HSkMC was “inactive”. The growth inhibition call in the assay with S. aureus RN4220 is “inactive”.
In the case of `CC1=C(C(=O)OCCN(Cc2ccccc2)c2ccccc2)[C@@H](c2cccc([N+](=O)[O-])c2)C(P2(=O)OCC(C)(C)CO2)=C(C)N1.CCO.Cl`, the cytotoxicity call in the assay on HSkMC (human skeletal muscle cells) is “inactive”. Also, the growth inhibition call in the assay on S. aureus RN4220 was “inactive”.
With `COc1cccnc1N`, the cytotoxicity call with HSkMC is “inactive”. Also, the growth inhibition call in the assay on S. aureus RN4220 is “inactive”.
As to `C[C@H]1CCCCO[C@H](CN(C)C(=O)C2CCCCC2)[C@@H](C)CN([C@@H](C)CO)C(=O)c2cc(NC(=O)Nc3ccccc3)ccc2O1`, the cytotoxicity call in the assay with HSkMC is “inactive”. Further, the growth inhibition call in the assay on S. aureus RN4220 was “inactive”.
With `C[C@@H]1CN([C@@H](C)CO)C(=O)c2cc(NC(=O)CCCN(C)C)ccc2O[C@@H](C)CCCCO[C@@H]1CN(C)S(C)(=O)=O`, in the assay with HSkMC, the cytotoxicity call is “inactive”. In the assay with S. aureus RN4220, the growth inhibition call is “inactive”.
Regarding `Cc1ccc(S(=O)(=O)N(C)C[C@@H]2Oc3c(NC(=O)c4cnccn4)cccc3C(=O)N([C@@H](C)CO)C[C@@H]2C)cc1`, the cytotoxicity call in the assay with HSkMC is “inactive”. In addition, the growth inhibition call in the assay on S. aureus RN4220 is “inactive”.
